The full ranking holds about 81,000 sequences; the median of “one-hybrid fitness for binding parS DNA” is about -0.17, and the highest 2% start at about 0.51. Some of the results follow.
B1: Caulobacter ParB omega fusion; a variant is named by its letters at X, in order, B8GW30 (parent)
chain: MESVVVGEPGMSEGRRGLGRGLSALLGEVDAAPAQAPGEQLGGSREAPIEILQRNPDQPRRTFREEDLEDLSNSIREKGVLQPILVRPSPDTAGEYQIVAGERAWRAAQRAGLKTVPIMVRELDDLAVLEIGIIENVQRADLNVLEEALSYKVLMEKFERTQENIAQTIGKSXSHVANXMRLLXLPDEVQSYLVSGELTAXHARAIAAAADPVALAKQIIEGGLSVRETEALARKAPNLSAGKSKGGRPPRVKDTDTQALESDLSSVLGLDVSIDHRGSTGTLTITYATLEQLDDLCNRLTRGI

Variants of: B1
Experiment: one-hybrid fitness for binding parS DNA (scaled: cognate 1, non-cognate 0); higher = stronger binding
Conditions: with parS DNA site
Summary of the method: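 The reporter was HIS3, with the binding site 19 bp from the promoter, in E. coli USO used for bacterial one-hybrid selection of Caulobacter ParB libraries with four specificity codons randomised. Growth was on M9 lacking histidine, with 0.1 mM IPTG and 5 mM 3-AT, for 48 hours at 37°C. Illumina sequencing covered plasmids before and after selection; three replicate libraries were pooled and variants with under 10 reads dropped. A fitness score is the log change in variant-to-wild-type read ratio, rescaled to the cognate and non-cognate references.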

one-hybrid fitness for binding parS DNA, 0.24:
RLHW

one-hybrid fitness for binding parS DNA, 0.549:
RIPT

one-hybrid fitness for binding parS DNA, 0.91:
RYKG

one-hybrid fitness for binding parS DNA, 0.213:
RIME

one-hybrid fitness for binding parS DNA, 0.211:
RALH

one-hybrid fitness for binding parS DNA, 0.958:
RSQC

one-hybrid fitness for binding parS DNA, ≤ 0.2:
SYDC
PNGT
ENPA
IRRA
SNGL
IVHR
ATVR
TVSD
QCQP
WSNA
SRDD
KKRC
GGVI
RRTH
GLIS
ELPS
DEDC
AAGN
MQDW
GFRC
VEFL
ATCK
HPTL
DGAC
AMHR
CCFG
VRVM
YRWC
MIEG
ERSA
QLGI
QRAP
SWYR
VHSR
FVDL
FMVL
MLKE
KRTQ
YTSC
PNRN
AEDR
SPLN
VPER
YLHP
TGYR
SSQT
GTYD
TTDA
YMVS
TDSR
HLNP
FKSM
DSTF
ASPM
AAGW
YPNP
NADG
QSCW
AFYK
YPPP
DDNT
LEQL
LDVG
KYRI
HEGI
GPRD
LCDG
SQTW
KGTM
DTNW
TTEQ
APVL
MTAR
QSSV
QLWA
TSQM
HGSF
NKPT
VYCL
WIQS
KSYI
TYQL
AHYT
RLHR
TPDV
GEQC
QGRL
GPGC
KILC
LMFR
TRCY
DVDG
SFSR
RHDE
AWMN
QKML
WRLG
RTIQ
GFYM
RPFF
CMLD
SKSD
SPDI
LHWS
QVIS
SLWG
VQIT
PQPM
TVPM
SPFS
ACCI
VGLN
QRAW
QSAM
HTHE
QHNQ
RPLT
WQHT
GRSA
ELPV
EGMC
VYMS
QRGL
HIYS
RYEH
GRKW
QESV
TGTW
TCPW
LESA
HDRS
QWTG
WLRI
QSYH
QSEI
IHAR
HTPS
YRPF
TQPN
PSKR
QTSN
TPNI
ANLP
LAKR
TSKS

one-hybrid fitness for binding parS DNA, 0.96:
RMVC

one-hybrid fitness for binding parS DNA, 0.806:
RHYT

— a collection of fitness landscapes (doi:10.1016/j.celrep.2020.107928)
